Where two headings read alike, the source gives them in different places. For at least one compound, name, drawing or mass did not settle the structure.
Experiments:
[1] = molecular target: T1, GLP-1R (Homo sapiens, UniProt P43220); assay: HitHunter cAMP assay (GLP-1R); assay type: cell-based
Method: (§1) Suspension cells were harvested and resuspended in 1×HBSS (+10 mM HEPES, 625 μM IBMX, 0.2% BSA) according to the following procedure: 5 μL of 2× cell suspension+1× antibody were added to each well, where the optimal cell density was 10,000 cells per well in a low volume 384-well plate. Agonist serial dilutions in a separate 384 well dilution plate in a 22-point series of 2× dilutions of agonist in DMSO were performed as follows. 80 μL of the highest concentration of Agonist/DMSO was added to well No. 1. 40 μL was removed from well No. 1 and added it to well No. 2, followed by gentle mixing. […] This process was repeated until well No. 22. Additional serial dilutions for additional agonists were set up in a similar manner. 50 nL of each 2× agonist serial dilution was added in duplicate to the designated agonist rows of the assay plate using the Labcyte ECHO. Assay plate was incubated for 30 minutes at room temperature. Following agonist incubation, 5 μL of cAMP Antibody Reagent was added to all wells. […] Plates were spun down briefly. Assay plate was incubated for 1 hour at room temperature in the dark for the immunocompetition reaction to occur. […] Plates were spun down briefly. Assay plate was incubated O/N at room temperature in the dark. Samples were read on Tecan i-control plate reader using luminescence mode with 300 ms integration time. Data analysis was performed using GraphPad Prism.

[2] = molecular target: T2, GIP-R (Homo sapiens, UniProt P48546); assay: HitHunter cAMP assay (GIP-R); assay type: cell-based
T2 sequence (P48546 22-466): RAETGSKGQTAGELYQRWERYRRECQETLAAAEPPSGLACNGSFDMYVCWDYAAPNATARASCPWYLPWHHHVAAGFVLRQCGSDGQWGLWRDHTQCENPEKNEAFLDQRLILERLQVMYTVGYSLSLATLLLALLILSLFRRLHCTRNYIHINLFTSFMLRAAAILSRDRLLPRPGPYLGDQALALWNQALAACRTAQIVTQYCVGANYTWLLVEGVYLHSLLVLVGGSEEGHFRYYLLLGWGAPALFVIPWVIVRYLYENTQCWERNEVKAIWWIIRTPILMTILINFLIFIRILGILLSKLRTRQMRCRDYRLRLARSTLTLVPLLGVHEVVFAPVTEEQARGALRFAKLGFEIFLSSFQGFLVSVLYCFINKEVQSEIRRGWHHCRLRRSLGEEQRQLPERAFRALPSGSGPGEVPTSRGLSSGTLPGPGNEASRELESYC
Method: as §1

[3] = tested on: mice; assay: Glucose tolerance test (GTT); assay type: in vivo, mouse; details: 24 h GTT, s.c., dose range 2-5 nmol/kg, percent of vehicle
Method: Freestyle Lite glucometer and strips; compounds to be tested; sterilized glucose solution 200 mg/ml.
Compounds were diluted in PBS from the 1 mM DMSO stocks right before injection. Body weight and baseline blood glucose level for each mouse were measured. Tails were snipped using sterile scissors; blood from tails was used to measure glucose. For 0.25 h GTT, mice were fasted for 5-6 h and injected with compound subcutaneously 15 mins before glucose injection. For 4 h GTT, mice were fasted O/N for 16 h and injected with compound subcutaneously 4 h before glucose injection. For 16 h GTT, mice were injected with compound subcutaneously 16 h before glucose injection; food was removed at the same time. For 24 h GTT, mice were injected with compound subcutaneously 24 h before glucose injection; food was removed 5-6 h before glucose injection. 20% glucose in water was prepared; the solution was sterilized by 0.2 μm-filtration. An intraperitoneal injection of glucose (2 g/kg) was given to the mouse. Continued to take blood samples from the tail. Blood glucose was measured at 10, 20, 30, 40, 60, 90, and 120 minutes after glucose injection. Between each of these time points, the mouse was returned to its cage and monitored (at least 6 replicate mice were used for each time-point). The average glucose measurements were plotted as a function of time and the area under the curve (AUC) was determined.

[4] = molecular target: T1, GLP-1R; assay: PathHunter β-arrestin assay; assay type: cell-based; details: read-out: β-arrestin activity EC50
Method: The effects of the chemical entities described herein on β-arrestin signaling and associated downstream processes (e.g., those delineated above) can be assessed using conventional methods, e.g., PathHunter β-arrestin Assay for determining β-arresting coupling (see Examples section). […] It has been shown that b-arrestin coupling is a key strep in receptor internalization and subsequent de-sensitization and attenuation of signaling.
5,000 cells were seeded in appropriate cell culture media per well in a low volume 384-well tissue culture plate. The assay plate was incubated with cells overnight at 37° C. and 5% CO2. The media was removed, and 5 μL of appropriate cell culture media containing 0.2% BSA was added. Agonist serial dilutions in a separate 384 well dilution plate in a 22-point series of 2× dilutions of agonist in DMSO were performed as follows. 80 μL of the highest concentration of Agonist/DMSO was added to well No. 1. 40 μL was removed from well No. 1, and added to well No. 2, followed by gentle mixing. […] This process was repeated until well No. 22. Additional serial dilutions for additional agonists were set up in a similar manner. 100 nL of each 2× agonist serial dilution was added in duplicate to the designated agonist rows of the assay plate using the Labcyte ECHO. Assay plate was incubated for 90 minutes at 37° C. and 5% CO2. A stock of Working Detection Solution in a separate 15 ml polypropylene tube was prepared by mixing 19 parts of Cell Assay Buffer, 5 parts of Substrate Reagent 1, 1 part Substrate Reagent 2. […] Plates were spun down briefly. Assay plate was incubated for 3 hour at room temperature in the dark for the immunocompetition reaction to occur. Samples were read on Tecan i-control plate reader using luminescence mode with 100 ms integration time. Data analysis was performed using GraphPad Prism.

[5] = read-out: EC50 GLP-1R/nM, Table 3A
[6] = read-out: EC50 GIP-R/nM, Table 3A

T1 sequence (P43220 24-463): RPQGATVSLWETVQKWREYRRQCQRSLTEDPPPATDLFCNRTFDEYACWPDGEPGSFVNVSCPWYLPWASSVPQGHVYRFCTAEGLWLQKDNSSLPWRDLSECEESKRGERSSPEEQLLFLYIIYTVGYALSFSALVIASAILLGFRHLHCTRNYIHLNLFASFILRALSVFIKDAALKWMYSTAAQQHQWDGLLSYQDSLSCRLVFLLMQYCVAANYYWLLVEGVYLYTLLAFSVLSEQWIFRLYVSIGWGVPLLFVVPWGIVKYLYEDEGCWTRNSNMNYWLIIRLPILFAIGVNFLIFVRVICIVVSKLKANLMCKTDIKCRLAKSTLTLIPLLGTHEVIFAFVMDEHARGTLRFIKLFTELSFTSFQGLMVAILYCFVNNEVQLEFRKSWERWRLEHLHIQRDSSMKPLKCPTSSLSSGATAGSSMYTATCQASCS

| Structure (SMILES) | EC50 ([1]; Table 3, read-out: EC50 GLP-1R/nM) [nM] | EC50 ([1]; Table 3A, read-out: EC50 GLP-1R/nM) [nM] | EC50 ([2]; Table 3, read-out: EC50 GIP-R/nM) [nM] | EC50 ([2]; Table 3A, read-out: EC50 GIP-R/nM) [nM] | AUC score [3] | EC50 [4] [nM] | EC50 [1, 5] [nM] | EC50 [2, 6] [nM] | EC50 ([1]; read-out: EC50 GLP-1R/nM, Table 3) [nM] | EC50 ([2]; read-out: EC50 GIP-R/nM, Table 3) [nM] |
| --- | --- | --- | --- | --- | --- | --- | --- | --- | --- | --- |
| CCCCCCCCCCCCCCCC(=O)N[C@@H](CCC(=O)NCCCC[C@H](NC(=O)[C@H](CO)NC(=O)[C@@H]1CCCN1C(=O)[C@@H]1CCCN1C(=O)[C@@H]1CCCN1C(=O)[C@H](C)NC(=O)CNC(=O)[C@H](CO)NC(=O)[C@H](CO)NC(=O)[C@@H]1CCCN1C(=O)CNC(=O)CNC(=O)[C@H](C)NC(=O)[C@H](CC(C)C)NC(=O)[C@H](CC(C)C)NC(=O)[C@H](Cc1c[nH]c2ccccc12)NC(=O)[C@H](CC(N)=O)NC(=O)[C@@H](NC(=O)[C@H](Cc1ccccc1)NC(=O)[C@H](CCC(=O)O)NC(=O)C(C)(C)NC(=O)[C@H](C)NC(=O)[C@H](C)NC(=O)[C@H](CCC(N)=O)NC(=O)[C@H](CCCCN)NC(=O)[C@H](CC(=O)O)NC(=O)[C@H](CC(C)C)NC(=O)[C@H](Cc1ccc(O)cc1)NC(=O)[C@@H](NC(=O)[C@H](CO)NC(=O)[C@H](Cc1ccc(O)cc1)NC(=O)[C@H](CC(=O)O)NC(=O)[C@H](CO)NC(=O)[C@@H](NC(=O)[C@H](Cc1ccccc1)NC(=O)[C@@H](NC(=O)CNC(=O)[C@H](CCC(=O)O)NC(=O)CSCC(=O)NCCN1C[C@@H](C)CC1=O)[C@@H](C)O)[C@@H](C)O)[C@@H](C)CC)C(C)C)C(N)=O)C(=O)O (single isomer, unassigned) [Compound 64] | < 0.1 | < 0.1 | 1 to 10 | 1 to 10 | 3 (AUC score 3 = 51-75%) | > 1000 | – | – | – | – |
| CCCCCCCCCCCCCCCC(=O)N[C@@H](CCC(=O)NCCCC[C@H](NC(=O)[C@H](CO)NC(=O)[C@@H]1CCCN1C(=O)[C@@H]1CCCN1C(=O)[C@@H]1CCCN1C(=O)[C@H](C)NC(=O)CNC(=O)[C@H](CO)NC(=O)[C@H](CO)NC(=O)[C@@H]1CCCN1C(=O)CNC(=O)CNC(=O)[C@H](C)NC(=O)[C@H](CC(C)C)NC(=O)[C@H](CC(C)C)NC(=O)[C@H](Cc1c[nH]c2ccccc12)NC(=O)[C@H](CC(N)=O)NC(=O)[C@@H](NC(=O)[C@H](Cc1ccccc1)NC(=O)[C@H](CCC(=O)O)NC(=O)C(C)(C)NC(=O)[C@H](C)NC(=O)[C@H](C)NC(=O)[C@H](CCC(N)=O)NC(=O)[C@H](CCCCN)NC(=O)[C@H](CC(=O)O)NC(=O)[C@H](CC(C)C)NC(=O)[C@H](Cc1ccc(O)cc1)NC(=O)[C@@H](NC(=O)[C@H](CO)NC(=O)[C@H](Cc1ccc(O)cc1)NC(=O)[C@H](CC(=O)O)NC(=O)[C@H](CO)NC(=O)[C@@H](NC(=O)[C@H](Cc1ccccc1)NC(=O)[C@@H](NC(=O)CNC(=O)[C@H](CCC(=O)O)NC(=O)CSCC(=O)NCCN1CC[C@@H](O)CC1=O)[C@@H](C)O)[C@@H](C)O)[C@@H](C)CC)C(C)C)C(N)=O)C(=O)O (single isomer, unassigned) [Compound 203] | – | – | – | – | – | > 1000 | 0.1 to 1 | 1 to 10 | – | – |
| CCCCCCCCCCCCCCCC(=O)N[C@@H](CCC(=O)NCCCC[C@H](NC(=O)[C@H](CO)NC(=O)[C@@H]1CCCN1C(=O)[C@@H]1CCCN1C(=O)[C@@H]1CCCN1C(=O)[C@H](C)NC(=O)CNC(=O)[C@H](CO)NC(=O)[C@H](CO)NC(=O)[C@@H]1CCCN1C(=O)CNC(=O)CNC(=O)[C@H](C)NC(=O)[C@H](CC(C)C)NC(=O)[C@H](CC(C)C)NC(=O)[C@H](Cc1c[nH]c2ccccc12)NC(=O)[C@H](CC(N)=O)NC(=O)[C@@H](NC(=O)[C@H](Cc1ccccc1)NC(=O)[C@H](CCC(=O)O)NC(=O)C(C)(C)NC(=O)[C@H](C)NC(=O)[C@H](C)NC(=O)[C@H](CCC(N)=O)NC(=O)[C@H](CCCCN)NC(=O)[C@H](CC(=O)O)NC(=O)[C@H](CC(C)C)NC(=O)[C@H](Cc1ccc(O)cc1)NC(=O)[C@@H](NC(=O)[C@H](CO)NC(=O)[C@H](Cc1ccc(O)cc1)NC(=O)[C@H](CC(=O)O)NC(=O)[C@H](CO)NC(=O)[C@@H](NC(=O)[C@H](Cc1ccccc1)NC(=O)[C@@H](NC(=O)CNC(=O)[C@H](CCC(=O)O)NC(=O)CSCC(=O)NCCN1CCC[C@@H](C)C1=O)[C@@H](C)O)[C@@H](C)O)[C@@H](C)CC)C(C)C)C(N)=O)C(=O)O (single isomer, unassigned) [Compound 208] | – | – | – | – | – | > 1000 | < 0.1 | 1 to 10 | – | – |
| CC[C@H](C)[C@H](NC(=O)[C@H](CO)NC(=O)[C@H](Cc1ccc(O)cc1)NC(=O)[C@H](CC(=O)O)NC(=O)[C@H](CO)NC(=O)[C@@H](NC(=O)[C@H](Cc1ccccc1)NC(=O)[C@@H](NC(=O)CNC(=O)[C@H](CCC(=O)O)NC(=O)CSCC(=O)NCCn1ccc(C(F)(F)F)cc1=O)[C@@H](C)O)[C@@H](C)O)C(=O)N[C@@H](Cc1ccc(O)cc1)C(=O)N[C@@H](CC(C)C)C(=O)N[C@@H](CC(=O)O)C(=O)N[C@@H](CCCCN)C(=O)N[C@@H](CCC(N)=O)C(=O)N[C@@H](C)C(=O)N[C@@H](C)C(=O)NC(C)(C)C(=O)N[C@@H](CCC(=O)O)C(=O)N[C@@H](Cc1ccccc1)C(=O)N[C@H](C(=O)N[C@@H](CC(N)=O)C(=O)N[C@@H](Cc1c[nH]c2ccccc12)C(=O)N[C@@H](CC(C)C)C(=O)N[C@@H](CC(C)C)C(=O)N[C@@H](C)C(=O)NCC(=O)NCC(=O)N1CCC[C@H]1C(=O)N[C@@H](CO)C(=O)N[C@@H](CO)C(=O)NCC(=O)N[C@@H](C)C(=O)N1CCC[C@H]1C(=O)N1CCC[C@H]1C(=O)N1CCC[C@H]1C(=O)N[C@@H](CO)C(=O)N[C@@H](CCCCN)C(N)=O)C(C)C [Compound 121] | – | – | – | – | – | > 1000 | 0.1 to 1 | 10 to 100 | 0.1 to 1 | 10 to 100 |

— patent US20260176320A1, “MODULATORS OF G-PROTEIN COUPLED RECEPTORS” (priority 2018, published 2026)
